# In the supplement of paper PMC3724861:
# This is one part of the list.
# Tested on: T1, Caupolican (Caup) homeodomain DNA-binding domain
# T1 sequence: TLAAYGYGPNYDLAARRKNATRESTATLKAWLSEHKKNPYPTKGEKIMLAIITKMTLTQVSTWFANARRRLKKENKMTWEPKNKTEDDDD
# Assay: PBM E-score (8-mer, recovered from the published 9-mer minima) (E-score (dimensionless, -0.5 to 0.5)); Drosophila protein; higher = stronger relative binding preference, active = 0.31 or more
# Description: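 Protein binding microarray (PBM): in vitro transcribed/translated Caupolican (Caup) homeodomain DNA-binding domain (residues 214-303) applied at 100 nM to a universal 8-mer PBM array (Agilent AMADID 015681). The 8-mer enrichment score (E-score, range -0.5 to 0.5) was computed, and each 9-mer score is the minimum E-score of its two constituent 8-mers. The E-score is the same for a 9-mer and its reverse complement; 0.31 is the stated binding threshold.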
row,Sequence,PBM E-score
1,GGCTTACA,inactive: 0.131
2,GGATGGCA,inactive: -0.00944
3,AGAGTATC,≥ 0.108
4,TGTCCTAA,inactive: 0.192
5,GAAGCTAC,inactive: -0.00674
6,AAATACCA,inactive: 0.101
7,AACACAAC,active: ≥ 0.339
8,AAAGCAAT,inactive: 0.122
9,GAATCTGC,inactive: -0.0402
10,TCGCGGAA,inactive: -0.17
11,CGAATTGC,inactive: -0.0371
12,AGGTACCG,inactive: -0.0903
13,GGACTATA,inactive: -0.00439
14,CCGACCGA,inactive: -0.201
15,CTACCCCC,inactive: -0.278
16,GAGCCGCA,inactive: -0.151
17,ATTAGCAC,inactive: -0.00274
18,GGACTGCC,inactive: -0.173
19,ACAGCGCA,inactive: 0.0114
20,ATACGGAT,≥ 0.0883
21,ATCCGGCG,inactive: -0.0736
22,CCAAGCGC,inactive: -0.119
23,AAAGAAGC,inactive: -0.0635
24,CCTCCTTC,inactive: -0.216
25,AGTTTACA,inactive: 0.289

row,Sequence,PBM E-score
1,AGCTACAG,inactive: 0.0132
2,AAATCCAT,≥ 0.133
3,ATGTGAAT,inactive: 0.166
4,TAAAAGGA,inactive: 0.00611
5,CTTGCGTC,inactive: -0.0726
6,GGTAATCA,inactive: 0.188
7,CCGACTCC,inactive: -0.132
8,AACATTTC,≥ 0.297
9,ACAATTGG,inactive: 0.0026
10,GAGCTTGC,inactive: -0.188
11,AAGTAGCC,inactive: -0.0533
12,GACGTGGA,inactive: -0.0891
13,GCGAATTA,inactive: 0.0826
14,AGAGAGAC,inactive: -0.0888
15,CGGACTAG,inactive: -0.108
16,GCCATACC,inactive: -0.148
17,CCCTTTTA,inactive: -0.0355
18,GGCGAGGA,inactive: -0.165
19,AGGATAGG,inactive: -0.0574
20,GAGTTATA,inactive: 0.0755
21,TCGTCAGA,inactive: -0.0168
22,ACATGCGA,inactive: 0.249
23,GCGGCAAC,inactive: -0.102
24,GCTATCCA,inactive: -0.0138
25,ACCTCCAC,inactive: -0.219

row,Sequence,PBM E-score
1,GAGGACAC,inactive: 0.0986
2,ACTGATCT,inactive: 0.0818
3,GCGAGAGA,inactive: -0.0945
4,CGTTAGAG,inactive: -0.0194
5,ATGTGGTA,inactive: 0.161
6,CAGCACTC,inactive: -0.0601
7,ATCGGGTC,inactive: -0.0871
8,CCGGGAAC,inactive: -0.0764
9,ATTCTTAA,inactive: 0.0707
10,CCCTTGCC,inactive: -0.205
11,CGTCTTTA,inactive: -0.0375
12,CATCGCCG,inactive: -0.121
13,ACCCCTTC,inactive: -0.104
14,CCACCGGC,inactive: -0.281
15,GATTTTGC,inactive: 0.019
16,GCGACACC,inactive: 0.026
17,TATCACGA,inactive: 0.113
18,ATATAAGG,inactive: 0.0261
19,CCATCAGG,inactive: -0.159
20,ACAAACCT,inactive: 0.0926
21,AATTTCAA,inactive: 0.104
22,CTCGTAAC,inactive: 0.0881
23,GTAAGAAC,inactive: 0.228
24,CCGCTAGG,inactive: -0.199
25,CACCACAA,inactive: 0.081

row,Sequence,PBM E-score
1,GTATGCTA,inactive: 0.0712
2,ACTGGGCA,inactive: -0.122
3,ACGTCGCA,inactive: -0.127
4,GTAATATA,inactive: 0.225
5,AACCTTCT,inactive: -0.0799
6,CGGGCACG,inactive: -0.188
7,ATCAGGGG,inactive: -0.169
8,GGCACATA,inactive: 0.0691
9,AGAAGGGC,inactive: -0.126
10,GCGCAATA,inactive: -0.0861
11,AGGTCGAG,inactive: -0.107
12,GGAGGCAA,inactive: -0.136
13,CAGCGAAC,inactive: 0.0117
14,GTGTCCCA,inactive: 0.0667
15,AGTTTTTC,inactive: -0.00466
16,CGTGGACC,inactive: -0.247
17,AACGCAGA,inactive: -0.0244
18,ATCGGCTG,inactive: -0.0593
19,CACACACG,inactive: 0.13
20,AGAGATAA,≥ 0.084
21,GGGCTGAA,inactive: -0.13
22,ATCGATTC,inactive: 0.00148
23,CGTTGCCA,inactive: 0.0237
24,CCATTCGA,inactive: -0.012
25,CGTAGAGC,inactive: -0.0605

row,Sequence,PBM E-score
1,GACGGTGA,inactive: -0.0978
2,ATCGACGG,inactive: -0.105
3,TCAACGCA,inactive: 0.0352
4,GACCCTCC,inactive: -0.196
5,AGAACTAA,inactive: 0.0808
6,GGAACACC,inactive: 0.141
7,GCAACCAA,inactive: 0.0429
8,CTTCCCAC,inactive: -0.106
9,TAAGACAA,inactive: 0.229
10,GGCTCTAC,inactive: -0.0932
11,ACGGGTTC,inactive: -0.0477
12,ACCCTAAT,inactive: 0.0435
13,AAGATGTA,inactive: 0.298
14,CATAATTA,inactive: 0.255
15,CTCCGAGC,inactive: -0.124
16,CGGATCAA,inactive: 0.0115
17,CGTCCACA,inactive: -0.0222
18,CTCTCATC,inactive: -0.0791
19,CCCGGATA,inactive: -0.046
20,CCGCCGCA,inactive: -0.22
21,GTCCCATA,inactive: -0.0023
22,CAGGAGGG,inactive: -0.19
23,GGCAAATA,inactive: 0.0378
24,CATCGGGA,inactive: 0.00133
25,ACACCGAC,inactive: 0.0855

row,Sequence,PBM E-score
1,ATGATTTA,inactive: 0.189
2,TAGTCTGA,inactive: 0.0543
3,AGCGGAGC,inactive: -0.242
4,GTCCGACA,inactive: 0.226
5,GGGCGTTA,inactive: -0.0736
6,CGGACACC,inactive: 0.0686
7,GAGCGTGC,inactive: -0.0861
8,ATCGCAGG,≥ 0.0242
9,AGCAGATC,≥ 0.102
10,ATATTTGC,inactive: 0.0765
11,ATCTGTTC,inactive: 0.149
12,CTCGTAGC,inactive: -0.00503
13,GGATTCTA,inactive: 0.0678
14,ATTGAGAC,inactive: 0.0804
15,CACTTTAG,inactive: -0.0591
16,GGATGTAA,inactive: 0.299
17,GGGCAGAA,inactive: -0.0763
18,AGACGCAA,inactive: -0.0402
19,AAATAACG,inactive: 0.11
20,GCAGAGGC,inactive: -0.223
21,CGGGCGAG,inactive: -0.163
22,ATCGCCTG,inactive: -0.106
23,AGCGGGTA,inactive: 0.00276
24,TGTGCAAA,inactive: 0.118
25,CATATCTA,inactive: 0.112

row,Sequence,PBM E-score
1,CCGAAATC,inactive: -0.0715
2,CCCTTACG,inactive: -0.183
3,CGTCTTAC,inactive: -0.0383
4,GGCTCAAC,inactive: -0.144
5,TGTTGGAA,≥ 0.246
6,CATGCCCC,inactive: -0.0767
7,AGTACAAT,inactive: 0.292
8,GCATGCGC,inactive: -0.104
9,AGACTTGA,inactive: 0.0829
10,CGTCTCCC,inactive: -0.193
11,AACACGCA,≥ 0.284
12,ACTACAGC,inactive: 0.149
13,AAATATAA,inactive: 0.179
14,CCACGAGG,inactive: -0.0809
15,CTGTCCAC,inactive: -0.015
16,CACTAAAC,inactive: 0.139
17,AAACGGCG,inactive: -0.114
18,AGTGTAAT,inactive: 0.225
19,ACAATTTG,inactive: 0.13
20,GGTGGGGA,inactive: -0.158
21,AAACTGTA,inactive: 0.118
22,GCATAATA,inactive: 0.169
23,AGGACGGA,inactive: -0.127
24,AAGCAGGG,inactive: -0.142
25,AAACCGAG,inactive: -0.0159

row,Sequence,PBM E-score
1,AGCGTCGC,inactive: -0.178
2,CCGGGCGA,inactive: -0.201
3,ATGTGTTC,inactive: 0.266
4,GCTGCAAC,inactive: -0.0952
5,GCGCAAAC,inactive: -0.0451
6,AGGGCAAA,inactive: -0.0369
7,CCGGGCGC,inactive: -0.324
8,CATGAAAG,inactive: 0.0672
9,CATACGGA,inactive: -0.0155
10,AGCGAGGA,inactive: -0.186
11,TAGACGCA,inactive: 0.013
12,ACTTAAAC,inactive: 0.108
13,CAACTACC,inactive: 0.0736
14,CGAGCGCA,inactive: -0.0783
15,CACATGAG,inactive: 0.0472
16,ATGCCCGC,inactive: -0.123
17,GTTAGGAA,inactive: 0.0363
18,TCCGGAAA,inactive: -0.0812
19,TCGACGAA,inactive: 0.0548
20,CGCACCCG,inactive: -0.131
21,GCCAGCAC,inactive: -0.105
22,CGTCTTGC,inactive: -0.0898
23,GATTTAAA,inactive: 0.01
24,AATAAGCT,inactive: 0.0546
25,ACCACCAT,inactive: 0.0399

row,Sequence,PBM E-score
1,GCCCTTTA,inactive: -0.135
2,GCTTGTTA,active: 0.315
3,CAGCAATA,inactive: 0.0248
4,CCCCAGTC,inactive: -0.198
5,AAGCTAGG,inactive: -0.137
6,GCTATAGC,inactive: -0.191
7,GCCATTAC,inactive: 0.0244
8,CAGGCCCC,inactive: -0.293
9,CATTCCGG,inactive: -0.102
10,CCAATATA,inactive: 0.114
11,ATGGCTTA,≥ 0.0303
12,TTCACGAA,inactive: 0.0673
13,ACCTATCG,inactive: 0.0612
14,ACAAGGGG,inactive: 0.177
15,TACTTTAA,inactive: 0.115
16,AGGGCTTC,inactive: -0.137
17,GGCCGATA,inactive: -0.0908
18,ATCAAGAT,inactive: 0.0803
19,ACACTAGA,inactive: 0.0868
20,ATAGTCGA,inactive: 0.0936
21,CGGATATC,inactive: 0.0433
22,AGCATAGG,inactive: -0.0834
23,ACAACTAT,inactive: 0.274
24,CATCTTAC,inactive: 0.16
